Data reported in the antibiotic and cytotoxicity screens of Wong et al. (2023).
The other results are listed elsewhere or left out.

Experiments:
HSkMC = human skeletal muscle cells; experiment: cytotoxicity call (relative viability < 0.9); conditions: 10 µM
S. aureus RN4220 = experiment: growth inhibition call (relative growth <= 0.2); conditions: 50 µM

Structure (SMILES)	cytotoxicity call (HSkMC)	growth inhibition call (S. aureus RN4220)
CCS(=O)(=O)Nc1ccc2c(c1)C(=O)N(C)[C@H]1CC[C@H](CC(=O)NCc3ccc(OC)cc3)O[C@@H]1CO2	inactive	inactive
Cc1cccc2c1OCC[C@@H](N)C2=O	inactive	inactive
C[C@@H]1CN([C@@H](C)CO)C(=O)Cc2cc(NS(=O)(=O)c3ccccc3)ccc2O[C@@H]1CN(C)S(=O)(=O)c1cn(C)cn1	inactive	inactive
C=CCN1C(=O)[C@]2(O[C@H](CCn3cc([C@H](O)c4ccccc4)nn3)[C@@H]([Si](C)(C)c3ccc(OC)cc3)[C@@H]2C)c2cc(N3C(=O)c4cccc5cccc3c45)ccc21	inactive	inactive
C[C@@H]1CCCCO[C@@H](CN(C)Cc2ccc(C(=O)O)cc2)[C@H](C)CN([C@H](C)CO)C(=O)c2cc(NC(=O)Nc3ccc4c(c3)OCO4)ccc2O1	inactive	inactive
CN(C)CC(=O)N[C@@H]1CC[C@H](CCNC(=O)C2CCC2)O[C@H]1CO	inactive	inactive
C[C@H](CO)N1C[C@H](C)[C@H](CN(C)Cc2ccc(C(F)(F)F)cc2)Oc2c(NC(=O)C3CCCCC3)cccc2C1=O	inactive	inactive
COc1ccc(NC(=O)N(C)C[C@H]2Oc3ccc(NC(=O)C4CC4)cc3CC(=O)N([C@H](C)CO)C[C@@H]2C)cc1	inactive	inactive
Cc1cnc(CNC(=O)[C@H]2C[C@H]3[C@@H](CCN3S(C)(=O)=O)O2)cn1	inactive	inactive
CC(=O)N1CCCC(=O)CC1	inactive	inactive
C[C@@H]1CN([C@@H](C)CO)C(=O)c2cccc(NS(=O)(=O)c3ccccc3)c2O[C@@H]1CN(C)Cc1ccncc1	inactive	inactive
O=C1CSCCN1	inactive	inactive
CC(C)NC(=O)N(C)C[C@H]1Oc2ccc(NS(=O)(=O)c3cccs3)cc2C(=O)N([C@H](C)CO)C[C@@H]1C	inactive	inactive
C[C@@H]1CCCCO[C@H](CN(C)C(=O)Nc2cccc3ccccc23)[C@@H](C)CN([C@@H](C)CO)C(=O)c2cc(N(C)C)ccc2O1	inactive	inactive
CCc1nc2ccc(C(=O)NC3CCN(Cc4ccccc4)CC3)cn2c1N(C)CCN1CCOCC1	inactive	inactive
COc1cccc(C(=O)Nc2ccc3c(c2)C(=O)N(C)[C@H]2CC[C@@H](CC(=O)NCCCN4CCOCC4)O[C@@H]2CO3)c1	inactive	inactive
C=CC1=C(C(=O)O)N2C(=O)C(NC(=O)C(=NO)c3csc(N)n3)C2SC1 (centres undefined)	inactive	active
C[C@H]1CN([C@@H](C)CO)C(=O)Cc2cc(NC(=O)CCCCCC(=O)Nc3ccccc3N)ccc2O[C@H]1CN(C)C(=O)Nc1cccc2ccccc12	inactive	inactive
COc1ncc(-c2ccc3c(Nc4cc(Oc5cc(F)cc(F)c5)cc(C(=O)O)c4)c(S(=O)(=O)NC4CC4)cnc3c2)c(OC)n1	inactive	active
O=C(NC(=O)N1CCOCC1)c1ccc(S(=O)(=O)N2CCOCC2)cc1	inactive	inactive
O=c1[nH]nc(Br)c(=O)[nH]1	inactive	inactive

Structure (SMILES)	cytotoxicity call (HSkMC)	growth inhibition call (S. aureus RN4220)
C[C@H](CO)N1C[C@H](C)[C@@H](CN(C)S(C)(=O)=O)Oc2c(NC(=O)CCCCCC(=O)Nc3ccccc3N)cccc2C1=O	inactive	inactive
C=CCN1C(=O)[C@@]2(O[C@@H](CCO)[C@H]([Si](C)(C)F)[C@H]2C)c2cc(N3C(=O)c4cccc5cccc3c45)ccc21	inactive	inactive
COc1ccc(S(=O)(=O)Nc2ccc3c(c2)C(=O)N([C@H](C)CO)C[C@@H](C)[C@H](CN(C)C(=O)NC2CCCCC2)OCCCC[C@H](C)O3)cc1	inactive	inactive
CS(=O)(=O)N1CCOC[C@@]2(C1)CN(S(=O)(=O)C1CC1)CCO2	inactive	inactive
C[C@@H]1CN([C@H](C)CO)C(=O)CCCn2nncc2CO[C@@H]1CN(C)C(=O)CCCN(C)C	inactive	inactive
C[C@@H]1O[C@@H](OC[C@H]2O[C@@H](Oc3cc(O)c4c(c3)O[C@@H](c3ccc(O)cc3)CC4=O)[C@H](O)[C@@H](O)[C@@H]2O)[C@H](O)[C@H](O)[C@H]1O	inactive	inactive
COc1ccc(S(=O)(=O)N(C)C[C@H]2Oc3ccc(NS(=O)(=O)c4cn(C)cn4)cc3CC(=O)N([C@H](C)CO)C[C@H]2C)cc1	inactive	inactive
C[C@H](CO)N1C[C@H](C)[C@H](CN(C)Cc2ccc(C(F)(F)F)cc2)Oc2ccc(NC(=O)Cc3ccccc3)cc2CC1=O	inactive	inactive
COc1ccc(NC(=O)Nc2ccc3c(c2)C(=O)N([C@H](C)CO)C[C@H](C)[C@H](CN(C)C(=O)Nc2ccccc2)OCCCC[C@@H](C)O3)cc1	inactive	inactive
C[C@H](CO)N1C[C@H](C)[C@H](CN(C)C(=O)Nc2cccc3ccccc23)Oc2ccc(NC(=O)Nc3ccc(C(F)(F)F)cc3)cc2C1=O	inactive	inactive
COc1ccc(COCC23Oc4ccccc4[C@H]([C@H]2CO)n2c(c4c(c(C(C)=O)c2=O)C(=O)N(C)C4=O)N3C)cc1	inactive	inactive
C[C@@H]1CN([C@@H](C)CO)C(=O)c2cccc(NS(=O)(=O)c3cccs3)c2O[C@@H]1CN(C)S(C)(=O)=O	inactive	inactive
C[C@H]1CCCCO[C@@H](CN(C)Cc2ccc(C(F)(F)F)cc2)[C@@H](C)CN([C@@H](C)CO)C(=O)c2cc(NC(=O)Nc3ccc4c(c3)OCO4)ccc2O1	inactive	inactive
CN1Cc2c(Cl)cc(Cl)cc2[C@H](c2cccc(S(=O)(=O)NCCOCCOCCNC(=O)NCCCCNC(=O)NCCOCCOCCNS(=O)(=O)c3cccc([C@@H]4CN(C)Cc5c(Cl)cc(Cl)cc54)c3)c2)C1	inactive	inactive
O=C(C[C@H]1CC=CC[C@H](NC(=O)OCC2c3ccccc3-c3ccccc32)C(=O)OCCNC1=O)NCCO	inactive	inactive
Cc1noc(C)c1S(=O)(=O)Nc1ccc2c(c1)C(=O)N([C@H](C)CO)C[C@H](C)[C@@H](CN(C)Cc1ccc(C(=O)O)cc1)O2	inactive	inactive
C[C@H]1CN([C@@H](C)CO)C(=O)c2cc(NC(=O)CCC(F)(F)F)ccc2O[C@@H]1CN(C)Cc1ccc(C(=O)Nc2ccccc2N)cc1	inactive	inactive
CCCC(=O)Nc1ccc(-c2nc3cc(C(C)C)ccc3o2)cc1	inactive	inactive
CCCC(=O)N(CCc1c[nH]c2ccccc12)[C@@H]1CC(C(=O)NCCO)=C[C@H](Oc2c(I)cc(CO)cc2OC)[C@H]1O	inactive	inactive
CC(C)[Si]1(C(C)C)OCc2cc(-c3ccc(-c4ccc(Cl)c(Cl)c4)o3)nc(-c3ccccc3)c21	inactive	inactive
C[C@H]1CN([C@@H](C)CO)C(=O)c2cccc(NC(=O)c3ccncc3)c2O[C@@H]1CN(C)Cc1ccc(Oc2ccccc2)cc1	inactive	inactive

Structure (SMILES)	cytotoxicity call (HSkMC)	growth inhibition call (S. aureus RN4220)
C[C@H](CO)N1C[C@H](C)[C@@H](CN(C)S(=O)(=O)c2ccc(Cl)cc2)Oc2ccc(NC(=O)CCCN(C)C)cc2CC1=O	inactive	inactive
Nc1cccc(-n2cc(CCC(=O)NO)nn2)c1	inactive	inactive
O=C(Nc1ccccc1)C1=C[C@H](c2ccc3c(c2)Cc2ccccc2-3)C[C@H](OCc2ccc(CO)cc2)O1	inactive	inactive
Cc1cc(=O)n2ncnc2n1CC(=O)NN	inactive	inactive
CC(C)(C)N1C[C@H](C(=O)O)CC1=O	inactive	inactive
C[C@@H]1CN([C@H](C)CO)C(=O)c2cc(NC(=O)Nc3ccc(F)cc3)ccc2O[C@H]1CN(C)C(=O)Nc1ccc(C(F)(F)F)cc1	inactive	inactive
C[C@@H]1CN([C@@H](C)CO)C(=O)c2c(c3ccccc3n2C)-c2ccccc2CO[C@H]1CN(C)Cc1cccc(F)c1	inactive	inactive
CSc1cccc(NC(=O)/C=C/c2ccc(C(C)C)cc2)c1	inactive	inactive
CC(C)CC#Cc1ccc2c(c1)O[C@H](CN(C)C(=O)c1cccnc1)[C@@H](C)CN([C@@H](C)CO)S2(=O)=O	inactive	inactive
C[C@H](CO)N1C[C@H](C)[C@H](CN(C)S(=O)(=O)c2cccs2)Oc2ccc(NC(=O)Cn3cnnn3)cc2CC1=O	inactive	inactive
C[C@H](CO)N1C[C@H](C)[C@H](CN(C)S(=O)(=O)c2ccc(F)cc2)Oc2ccc(NC(=O)c3ccncc3)cc2C1=O	inactive	inactive
Cc1ccc(S(=O)(=O)N(C)C[C@H]2Oc3cc(C#Cc4ccccc4)ccc3S(=O)(=O)N([C@@H](C)CO)C[C@H]2C)cc1	inactive	inactive
COc1ccc(NC(=O)Nc2ccc3c(c2)C(=O)N([C@H](C)CO)C[C@H](C)[C@@H](CN(C)S(=O)(=O)c2ccc(F)cc2)OCCCC[C@@H](C)O3)cc1	inactive	inactive
C[C@H]1CN([C@@H](C)CO)C(=O)c2cc(C#CC3(O)CCCC3)cnc2O[C@H]1CN(C)C(=O)Cc1ccccc1	inactive	inactive
CCOC(=O)c1cccc(N)c1.CS(=O)(=O)O	inactive	inactive
O=C(O)c1cc2ccc(O)c(=O)c-2c(O)c(O)c1	inactive	inactive
CC(C)CC#Cc1ccc2c(c1)O[C@H](CN(C)C(=O)c1ccccn1)[C@H](C)CN([C@H](C)CO)S2(=O)=O	inactive	inactive
C[C@@H]1CN([C@@H](C)CO)C(=O)Cc2cc(NC(=O)Cn3cnnn3)ccc2O[C@H]1CN(C)C(=O)Nc1ccccc1	inactive	inactive
C[C@H]1CN([C@@H](C)CO)C(=O)Cc2cc(NC(=O)Nc3cccc4ccccc34)ccc2O[C@H]1CN(C)S(=O)(=O)c1ccc(F)cc1	inactive	inactive
COC(=O)c1c2oc(c1C(=O)OC)C(=O)N[C@@H](Cc1ccccc1)Cn1cc(nn1)CNC(=O)[C@@H](Cc1ccccc1)NC(=O)N[C@@H](CO)CC2	inactive	inactive
